{"source": "PubChem BioAssay AID1224903", "about": "(Bradner/Qi Labs at DFCI, 2016)", "note": "Several values for one entry are separate records, joined by “and”; a condition that tells them apart may be missing. Equal entries are not always repeated. The list shows a part of the results. Further columns of the screen follow, without active or inactive calls. The list favours compounds with an active or inconclusive main result.", "data": [{"biological_target": "Chromobox protein homolog 7 (Homo sapiens) (UniProt O95931)", "sequence (O95931 whole entry, looked up)": "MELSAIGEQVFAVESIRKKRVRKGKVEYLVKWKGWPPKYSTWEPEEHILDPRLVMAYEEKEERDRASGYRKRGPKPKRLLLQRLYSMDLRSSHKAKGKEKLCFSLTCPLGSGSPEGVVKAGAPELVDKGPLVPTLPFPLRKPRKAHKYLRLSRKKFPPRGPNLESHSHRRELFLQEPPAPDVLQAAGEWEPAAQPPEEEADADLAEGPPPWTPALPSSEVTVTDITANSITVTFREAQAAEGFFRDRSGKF", "test": "CBX7 chromodomain binding inhibitors, primary screen, biochemical, AlphaScreen (AID 1224903)", "conditions": "AlphaScreen His6-CBX7 / biotin-H3K27me3 peptide binding; measured here: z-score of CBX7 signal; stronger effect = lower value", "values": [{"smiles": "O=S(=O)(c1ccccc1)c1nc(-c2ccccc2F)oc1N1CCCCC1", "z-score": -4.85}, {"smiles": "O=C(Nc1nnc(-c2ccc(Cl)s2)o1)c1ccc(S(=O)(=O)N2CCCCC2)cc1", "z-score": -9.49}, {"smiles": "CCCCn1cnc2cc(NCc3cccc(Br)c3)ccc21", "z-score": -21.5}, {"smiles": "c1ccc2cc(-c3csc(Nc4ccc5c(c4)OCO5)n3)ccc2c1", "z-score": "-8.31 and -7.88"}, {"smiles": "N#Cc1nc(COc2ccccc2F)oc1NCCc1ccccc1", "z-score": -9.25}, {"smiles": "CCOC(=O)c1cnc2ccc(C)cc2c1Nc1ccc(N2CCCCC2)cc1", "z-score": -7.8}, {"smiles": "CCn1cnc2cc(NCc3cccc(Br)c3)ccc21", "z-score": -15.9}, {"smiles": "O=C(CN1CCCCC1)Nc1c2c(nc3c1CCC3)CCCC2", "z-score": -7.41}, {"smiles": "CCNc1ccc(Br)cc1-c1nc2ccccc2n(CC)c1=O", "z-score": -10.5}, {"smiles": "Cc1ccc2c(c1)N(CCC(=O)NCc1ccccn1)C(=O)CO2", "z-score": -8.9}, {"smiles": "CN(C1CCCCC1)S(=O)(=O)c1ccc(C(=O)Nc2nnc(C3CC3)o2)cc1", "z-score": -1.69}, {"smiles": "Cc1ccn2c(Nc3ccc(F)cc3)c(-c3ccccn3)nc2c1", "z-score": -26.7}, {"smiles": "COC(=O)c1c[nH]n2c(NC3CCC(C)CC3)c(-c3ccc(Cl)cc3)nc12", "note": "(stereo unspecified)", "z-score": -0.754}, {"smiles": "COc1ccc(CN2C(=O)c3cccnc3C2Nc2cc(Cl)c(OC)cc2OC)cc1", "note": "(stereo unspecified)", "z-score": -11.9}, {"smiles": "COc1ccc(-n2ccnc2SCC(=O)Nc2ccc(C)c(Cl)c2)cc1", "z-score": -0.701}, {"smiles": "c1ccc(-c2nc(-c3cccnc3)[nH]c2-c2ccccc2)cc1", "z-score": -0.688}, {"smiles": "CC(=O)N1CCN(CC(O)COc2ccc(Br)cc2)CC1", "note": "(stereo unspecified)", "z-score": -1.11}, {"smiles": "O=C(CN1CCCCCC1)Nc1c2c(nc3c1CCC3)CCCC2", "z-score": -12.4}, {"smiles": "COCCN(CCOC)S(=O)(=O)c1ccc(C(=O)Nc2nnc(-c3ccccc3Cl)o2)cc1", "z-score": -3.23}, {"smiles": "COc1ccc(-c2nc(-c3ccccc3)c(-c3ccccc3)[nH]2)c(OC)c1", "z-score": -15.7}, {"smiles": "CCOC(=O)c1ccc(NC2c3ncccc3C(=O)N2Cc2ccc(F)cc2)cc1", "note": "(stereo unspecified)", "z-score": -7.13}, {"smiles": "O=C(CN1C(=O)COc2ccc(Cl)cc21)NCc1ccc(F)cc1", "z-score": -1.18}, {"smiles": "CCOc1ccc(CN(C)CCc2ccccn2)cc1", "z-score": -4.15}, {"smiles": "O=C(CCCN1C(=O)c2cccnc2C1=O)N1CCN(c2ccccc2)CC1", "z-score": -4.9}, {"smiles": "Cc1cc(NC(=O)CSc2nnc(CNC(=O)COc3ccc(Cl)cc3)o2)no1", "z-score": -12.2}, {"smiles": "CCN(c1ccccc1)S(=O)(=O)c1ccc(C(=O)Nc2nnc(C)o2)cc1", "z-score": -24.7}, {"smiles": "CC(C)c1ccc2oc(-c3ccc(NC(=O)c4ncn[nH]4)cc3)nc2c1", "z-score": -25.7}, {"smiles": "OC1(c2ccc3c(c2)c2c4n3CCN(Cc3ccccc3)C4CCC2)CCCC1", "note": "(stereo unspecified)", "z-score": -7.12}, {"smiles": "COc1ccc(CN(C)CCc2ccccn2)cc1OC", "z-score": -4.16}, {"smiles": "CCOc1ccc2nc(N3CCCC(C(=O)N4CCN(C)CC4)C3)sc2c1", "note": "(stereo unspecified)", "z-score": -11.6}, {"smiles": "COC(=O)c1c[nH]n2c(NC3CCCCCC3)c(-c3ccc(F)cc3)nc12", "z-score": -10.9}, {"smiles": "Cc1cccc2nc(-c3ccccn3)c(Nc3ccc(C(C)C)cc3)n12", "z-score": -26.3}, {"smiles": "COC(=O)c1c[nH]n2c(NC3CCC(C)CC3)c(-c3cccc(F)c3)nc12", "note": "(stereo unspecified)", "z-score": -0.752}, {"smiles": "COCc1cc(CN2CCC(C)CC2)c(O)c2ncccc12", "z-score": -26.5}, {"smiles": "COc1ccccc1-n1cnc2cc(NCc3ccc(N(C)C)cc3)ccc21", "z-score": -33.5}, {"smiles": "Oc1ccc(-c2nc(-c3ccccc3)c(-c3ccc(Br)cc3)[nH]2)cc1", "z-score": -0.541}, {"smiles": "Cc1ccc(OCC(O)Cn2cnc3cc(C)c(C)cc32)cc1", "note": "(stereo unspecified)", "z-score": -17.5}, {"smiles": "COc1ccc(S(=O)(=O)NCCc2c(C)[nH]c3ccc(C)cc23)cc1", "z-score": -0.543}, {"smiles": "COc1ccc(NC(=O)c2c(NCc3cccnc3)sc3c2CCCC3)c(OC)c1", "z-score": -13.7}, {"smiles": "CCOc1ccc(NC2c3ncccc3C(=O)N2Cc2ccc(F)cc2)cc1", "note": "(stereo unspecified)", "z-score": -6.47}, {"smiles": "c1ccc(C(c2ccccc2)c2nc(-c3cccnc3)no2)cc1", "z-score": -11.7}, {"smiles": "COc1ccc(-c2nc(-c3ccccc3)c(-c3ccc(F)cc3)[nH]2)cc1OC", "z-score": -15.3}, {"smiles": "CCc1nnc(NC(=O)c2ccc(S(=O)(=O)N(CC(C)C)CC(C)C)cc2)o1", "z-score": -1.56}, {"smiles": "N#Cc1nc(COc2ccc(F)cc2)oc1N1CCCCCC1", "z-score": -3.15}, {"smiles": "CCOc1ccc(NCc2nc3ccccc3n2CCOc2ccccc2)cc1", "z-score": -14.8}, {"smiles": "O=C(CCN1C(=O)c2cccnc2C1=O)Nc1cccc(F)c1", "z-score": -9.38}, {"smiles": "O=C(Nc1nnc(-c2cccs2)o1)c1ccc(S(=O)(=O)N2CCCC2)cc1", "z-score": -14.6}, {"smiles": "O=C(CSc1n[nH]c(-c2ccncc2)n1)c1ccc(Br)cc1", "z-score": -1.56}, {"smiles": "CCC(=O)Nc1nc(C)c(-c2csc(Nc3ccc(C(=O)O)cc3)n2)s1", "z-score": -1.03}, {"smiles": "Oc1c(C(Nc2ccccn2)c2ccccc2)ccc2cccnc12", "note": "(stereo unspecified)", "z-score": -7.07}, {"smiles": "CCN(CC)c1ccc(Nc2nc(-c3c(C)nc4cc(C)ccn34)cs2)cc1", "z-score": -21.4}, {"smiles": "COc1ccc(-c2nnc(NC(=O)c3ccc(OC)c(OC)c3)o2)cc1", "z-score": -15.8}, {"smiles": "CN(c1ccccc1)S(=O)(=O)c1ccc(C(=O)Nc2nc(-c3ccccn3)cs2)cc1", "z-score": -6.92}, {"smiles": "Cc1onc(-c2c(F)cccc2Cl)c1C(=O)NCC1COc2ccccc2O1", "note": "(stereo unspecified)", "z-score": -0.594}, {"smiles": "CCOC(=O)c1cnc2ccc(C)cc2c1Nc1ccc(N(C)C)cc1", "z-score": -7.11}, {"smiles": "COc1ccc(OC)c(-c2nc(-c3ccccc3)c(-c3ccccc3)[nH]2)c1", "z-score": -14.7}, {"smiles": "COc1ccc(C(CC(=O)c2ccco2)Sc2cccc3cccnc23)cc1OC", "note": "(stereo unspecified)", "z-score": -3.93}, {"smiles": "O=C(NCc1ccc2c(c1)OCO2)[C@H](Cc1ccccc1)N1Cc2ccccc2C1=O", "z-score": -1.57}, {"smiles": "CCOc1cc2c(cc1OCC)C1C(C(=O)Nc3cc(C)ccn3)c3ccccc3C(=O)N1CC2", "note": "(stereo unspecified)", "z-score": -6.48}, {"smiles": "Cc1[nH]c2ccc(OCc3ccccc3)cc2c1CCNC(=O)c1ccnn1C", "z-score": -1.05}, {"smiles": "COc1ccccc1Nc1nc(-c2sc(N)nc2C)cs1", "z-score": -12.4}, {"smiles": "CSCC[C@@H](C(=O)Nc1cccc(F)c1)N1Cc2ccccc2C1=O", "z-score": -1.43}, {"smiles": "COCc1nnc(NC(=O)c2ccc(S(=O)(=O)N(C)C3CCCCC3)cc2)o1", "z-score": -1.47}, {"smiles": "COc1ccc(-c2nnc(NC(=O)c3ccc(S(=O)(=O)N(C)Cc4ccccc4)cc3)o2)cc1", "z-score": -16.7}, {"smiles": "COc1ccc(NCC(O)Cn2c3ccccc3c3ccccc32)cc1", "note": "(stereo unspecified)", "z-score": -16.2}, {"smiles": "CCOc1ccccc1CN(CCc1ccc2c(c1)OCO2)Cc1ccccn1", "z-score": -1.62}, {"smiles": "COC(=O)c1c[nH]n2c(NC3CCCCCC3)c(-c3cccc(OC)c3)nc12", "z-score": -9.96}, {"smiles": "O=C(Nc1nnc(C2CC2)o1)c1ccc(S(=O)(=O)N2CCCC2)cc1", "z-score": -15.5}, {"smiles": "O=S(=O)(Nc1nc2ccccc2nc1N1CCc2ccccc2C1)c1ccc(Br)cc1", "z-score": -5.92}, {"smiles": "COc1ccc(N2CCN(c3oc(COc4cccc(C)c4)nc3C#N)CC2)cc1", "z-score": -14.4}, {"smiles": "CCOC(=O)c1cnc2ccc(OCC)cc2c1Nc1ccc2c(c1)OCO2", "z-score": -0.65}, {"smiles": "CCN(CCCNC(=O)CC(C(=O)N1CCc2ccccc21)n1ccnc1)c1cccc(C)c1", "note": "(stereo unspecified)", "z-score": -19.3}, {"smiles": "COC(=O)c1c[nH]n2c(NC3CCCC3)c(-c3ccc(OC)cc3)nc12", "z-score": -0.999}, {"smiles": "COc1ccc(-c2nnc(NC(=O)c3ccc(S(=O)(=O)N(C)C)cc3)o2)cc1", "z-score": -16.2}, {"smiles": "CCN1CCCc2cc(CN(CCN3CCOCC3)C(=O)Nc3ccc(C)c(C)c3)ccc21", "z-score": -15.4}, {"smiles": "CC(C)c1ccc(Nc2c(-c3ccccn3)nc3ccccn23)cc1", "z-score": -31.8}, {"smiles": "Cc1ccc2nc(-c3ccccn3)c(Nc3ccccc3C)n2c1", "z-score": -21.4}, {"smiles": "Cc1ccccc1OCc1nc(C#N)c(N2CCCCCC2)o1", "z-score": -3.29}, {"smiles": "CCOc1ccc(-c2nnc(Nc3cccc(O)c3)c3ccccc23)cc1", "z-score": -2.37}, {"smiles": "O=C(Nc1ccc2oc(-c3ccncc3)nc2c1)c1ccc(-c2ccc(F)cc2)o1", "z-score": -4.94}, {"smiles": "CCCCn1cnc2cc(NCc3ccccc3OCC)ccc21", "z-score": -23.3}, {"smiles": "CCCn1c(=O)c(C(=O)NC(C)c2ccccc2)c(O)c2ccccc21", "note": "(stereo unspecified)", "z-score": -4.53}, {"smiles": "O=C(Nc1nc(-c2ccccn2)cs1)c1ccc(S(=O)(=O)N2CCCCC2)cc1", "z-score": -18.2}, {"smiles": "CCc1nnc(NC(=O)c2ccc(S(=O)(=O)N(C)C3CCCCC3)cc2)o1", "z-score": -10.3}, {"smiles": "CCC(=C(c1ccc(OC)cc1)c1ccc(OC)cc1)c1cn(CCCN(C)C)c2ccccc12", "z-score": -4.56}, {"smiles": "CCCN1C(=O)C(O)(CC(=O)c2ccc(C(C)C)cc2)c2cc(Br)ccc21", "note": "(stereo unspecified)", "z-score": -0.972}, {"smiles": "c1cc2c(cc1Nc1nc3nonc3nc1Nc1ccc3c(c1)OCO3)OCO2", "z-score": -7.98}, {"smiles": "Cc1ccc(Cn2cc(CCC(=O)NCc3cccnc3)c3ccccc32)cc1", "z-score": -0.736}, {"smiles": "CC1CCc2cc(F)ccc2N1C(=O)CCCN1C(=O)c2cccnc2C1=O", "note": "(stereo unspecified)", "z-score": -5.1}, {"smiles": "Clc1ccc(-c2csc(Nc3ccc(Br)cc3)n2)cc1Cl", "z-score": -9.3}, {"smiles": "COc1ccc(Cl)cc1S(=O)(=O)NCCc1c(C)[nH]c2ccc(C)cc12", "z-score": -0.52}, {"smiles": "O=C(CC(Sc1cccc2cccnc12)c1ccc(OC(F)F)cc1)c1ccco1", "note": "(stereo unspecified)", "z-score": -3.92}, {"smiles": "Cc1ccc2c(c1)Oc1cc([N+](=O)[O-])cc(Oc3cccc(Cl)c3Cl)c1C(=O)N2", "z-score": -14.6}, {"smiles": "C=CCc1cc(C)ccc1OCC(O)CN1CCN(c2ccccc2)CC1", "note": "(stereo unspecified)", "z-score": -1.26}, {"smiles": "CC1CCN(c2oc(-c3ccccc3)nc2C#N)CC1", "z-score": -0.694}, {"smiles": "COc1cccc(-c2nc(-c3ccccc3)c(-c3cc([N+](=O)[O-])ccc3C)[nH]2)c1", "z-score": -0.527}, {"smiles": "CCN(CC)c1ccc(NC2c3ccccc3C(=O)N2c2ccc(Cl)cn2)c(C)c1", "note": "(stereo unspecified)", "z-score": -12}, {"smiles": "COc1ccc(OC)c(NCC(O)Cn2c3ccccc3c3ccccc32)c1", "note": "(stereo unspecified)", "z-score": -4.38}, {"smiles": "Fc1ccc(-c2[nH]c(-c3c[nH]c4ccc(Br)cc34)nc2-c2ccccc2)cc1", "z-score": -0.542}, {"smiles": "Cc1ccc(Nc2nc(-c3c(C)nc4cc(C)ccn34)cs2)c(C)c1", "z-score": -0.657}, {"smiles": "CC(=O)Nc1ccc(Nc2nc(-c3ccccn3)cs2)cc1", "z-score": -18.6}, {"smiles": "CCOC(=O)c1cnc2c(OC)cccc2c1N1CCC(Cc2ccccc2)CC1", "z-score": -0.65}, {"smiles": "O=C1Nc2ccccc2SC(c2ccccc2)C1O", "note": "(stereo unspecified)", "z-score": -10.4}, {"smiles": "CC(C)Cc1ccc(-c2csc(Nc3ccc(Oc4ccccc4)cc3)n2)cc1", "z-score": -8.87}, {"smiles": "O=C(Nc1nnc(-c2ccc(F)cc2)o1)c1ccc(S(=O)(=O)N2CCCC2)cc1", "z-score": -4.34}, {"smiles": "COc1ccc(-c2csc(Nc3ccc(C)c(Cl)c3)n2)cc1F", "z-score": -10.5}]}]}
